Numbering of substitutions follows the chain as printed.
B1: Ab140: anti-pro/latent myostatin antibody; CDRs in Tables 2d-f, variable domains Table 3, chains Table 4 (antibody)
heavy: EVQLVESGGGLVQPGGSLRLSCAASGFTFSSYGMSWVRQAPGKGLELVASFTGSGGTYYPDSVKGRFTISRDNAKNSLYLQMNSLRAEDTAVYYCARDNLIRFLEWSHYYGMDVWGQGTTVTVSSASTKGPSVFPLAPCSRSTSESTAALGCLVKDYFPEPVTVSWNSGALTSGVHTFPAVLQSSGLYSLSSVVTVPSSSLGTKTYTCNVDHKPSNTKVDKRV[human IgG4 Fc with S228P (EU numbers) left out]
light: DIVMTQSPLSLPVTPGEPASISCRSSQSLLHSSGHNFLHWYLQKPGQSPQLLIYEVSNRESGVPDRFSGSGSGTDFTLKISRVEAEDVGVYYCQQQTQYPPTFGGGTKVEIKRTVAAPSVFIFPPSDEQLKSGTASVVCLLNNFYPREAKVQWKVDNALQSGNSQESVTEQDSKDSTYSLSSTLTLSKADYEKHKVYACEVTHQGLSSPVTKSFNRGEC
B2: Ab138: anti-pro/latent myostatin antibody; CDRs in Tables 2d-f, variable domains Table 3, chains Table 4 (antibody)
heavy: EVQLVESGGGLVQPGGSLRLSCAASGFTFTSYGMSWVRQAPGKGLELVASITGSKGETYYPDSVKGRFTISRDNAKNSLYLQMNSLRAEDTAVYYCARDLLVRFLEWSHYYGMDVWGQGTTVTVSSASTKGPSVFPLAPCSRSTSESTAALGCLVKDYFPEPVTVSWNSGALTSGVHTFPAVLQSSGLYSLSSVVTVPSSSLGTKTYTCNVDHKPSNTKVDKRV[human IgG4 Fc with S228P (EU numbers) left out]
light: B1 light with V56T, E60A, S61P, V63I, Q96A, Y99F, P101R, T102P
B3: Ab139: anti-pro/latent myostatin antibody; CDRs in Tables 2d-f, variable domains Table 3, chains Table 4 (antibody)
heavy: B1 heavy with G56A, T57A, N99L
light: B1 light with V56S, E60V
B4: Ab114: anti-pro/latent myostatin antibody; CDRs in Tables 2d-f, variable domains Table 3, chains Table 4 (antibody)
heavy: QVQLVQSGAEVKKPGASVKVSCKVSGGTFRSYTIHWVRQAPGKGLEWMGGMNPSSGHTIYAQKFQGRVTMTEDTSTDTAYMELSSLKSEDTAVYYCARGLDYGEGYYYYGMDVWGQGTTVTVSSASTKGPSVFPLAPCSRSTSESTAALGCLVKDYFPEPVTVSWNSGALTSGVHTFPAVLQSSGLYSLSSVVTVPSSSLGTKTYTCNVDHKPSNTKVDKRV[human IgG4 Fc with S228P (EU numbers) left out]
light: DIQMTQSPSSVSASVGDRVTITCRASQGISESLAWYQQKPGKAPKLLIYSASSLESGVPSRFSGSGSGTDFTLTISSLQPEDFANYYCQQGYSSPPYTFGGGTKVEIKRTVAAPSVFIFPPSDEQLKSGTASVVCLLNNFYPREAKVQWKVDNALQSGNSQESVTEQDSKDSTYSLSSTLTLSKADYEKHKVYACEVTHQGLSSPVTKSFNRGEC
B5: Ab115: anti-pro/latent myostatin antibody; CDRs in Tables 2d-f, variable domains Table 3, chains Table 4 (antibody)
heavy: QVQLVQSGAEVKKPGASVKVSCKVSGYAFTNYNIHWVRQAPGKGLEWMGGINPRTGGTIYAQKFQGRVTMTEDTSTDTAYMELSSLKSEDTAVYYCAKDIYTGVAVAGSGMDYWGQGTLVTVSSASTKGPSVFPLAPCSRSTSESTAALGCLVKDYFPEPVTVSWNSGALTSGVHTFPAVLQSSGLYSLSSVVTVPSSSLGTKTYTCNVDHKPSNTKVDKRV[human IgG4 Fc with S228P (EU numbers) left out]
light: DIQMTQSPSSVSASVGDRVTITCRASQGISTHLAWYQQKPGKAPKLLIYGASNLESGVPSRFSGSGSGTDFTLTISSLQPEDFANYYCQQANSFPWTFGGGTKVEIKRTVAAPSVFIFPPSDEQLKSGTASVVCLLNNFYPREAKVQWKVDNALQSGNSQESVTEQDSKDSTYSLSSTLTLSKADYEKHKVYACEVTHQGLSSPVTKSFNRGEC
B6: Ab129: anti-pro/latent myostatin antibody; CDRs in Tables 2d-f, variable domains Table 3, chains Table 4 (antibody)
heavy: QVQLVQSGAEVKKPGASVKVSCKVSGFNYPRSAIHWVRQAPGKGLEWMGGINPSGEATIYAQKFQGRVTMTEDTSTDTAYMELSSLKSEDTAVYYCARDSSPQWLVTAGVYFYGMDVWGQGTTVTVSSASTKGPSVFPLAPCSRSTSESTAALGCLVKDYFPEPVTVSWNSGALTSGVHTFPAVLQSSGLYSLSSVVTVPSSSLGTKTYTCNVDHKPSNTKVDKRV[human IgG4 Fc with S228P (EU numbers) left out]
light: B5 light with G28S, T31N, H32W, G50H, N53T, E55Q, A91Y, N92S, F94T
B7: Ab134: anti-pro/latent myostatin antibody; CDRs in Tables 2d-f, variable domains Table 3, chains Table 4 (antibody)
heavy: B2 heavy with F27S, T28A, T30S, T52N, G53S, S54N, K55G, E57S, R103E, E106K
light: B1 light with E60V, Q94M
B8: Ab111: anti-pro/latent myostatin antibody; CDRs in Tables 2d-f, variable domains Table 3, chains Table 4 (antibody)
heavy: QVQLVQSGAEVKKPGASVKVSCKVSGYTFTSNDIHWVRQAPGKGLEWMGGIFPIFGTTIYAQKFQGRVTMTEDTSTDTAYMELSSLKSEDTAVYYCAREGLGYDFDYWGQGTLVTVSSASTKGPSVFPLAPCSRSTSESTAALGCLVKDYFPEPVTVSWNSGALTSGVHTFPAVLQSSGLYSLSSVVTVPSSSLGTKTYTCNVDHKPSNTKVDKRV[human IgG4 Fc with S228P (EU numbers) left out]
light: DIQMTQSPSSVSASVGDRVTITCRASQNIGNWLAWYQQKPGKAPKLLIYSASALQSGVPSRFSGSGSGTDFTLTISSLQPEDFANYYCQQSYGAPMYSFGGGTKVEIKRTVAAPSVFIFPPSDEQLKSGTASVVCLLNNFYPREAKVQWKVDNALQSGNSQESVTEQDSKDSTYSLSSTLTLSKADYEKHKVYACEVTHQGLSSPVTKSFNRGEC
B9: Ab132: anti-pro/latent myostatin antibody; CDRs in Tables 2d-f, variable domains Table 3, chains Table 4 (antibody)
heavy: B1 heavy with N99L
light: B1 light with E60V

tested on: biotinylated human pro-myostatin; assay: Biacore 8k SPR binding affinity, human pro-myostatin; conditions: not given
From the text: (§1) The Biacore™ 8 k SPR system was utilized to evaluate the binding affinity of myostatin antibodies to biotinylated human, murine, and cyno pro-myostatin. Biotin CAPture kit and sensor chips (Cytiva) were utilized in these experiments to immobilize the various antigens, followed by flowing a range of concentrations of each of the test antibodies.

Ka | Kd (1/s) | Molecule
6.53e+06 M⁻¹ s⁻¹ | 0.000711 s⁻¹ | B1
5.27e+06 M⁻¹ s⁻¹ | 0.000577 s⁻¹ | B2
1.9e+07 M⁻¹ s⁻¹ | 0.0023 s⁻¹ | B3
4.23e+06 M⁻¹ s⁻¹ | 0.00735 s⁻¹ | B4
406000 M⁻¹ s⁻¹ | 0.00123 s⁻¹ | B5
140000 M⁻¹ s⁻¹ | 0.000307 s⁻¹ | B6

tested on: biotinylated murine pro-myostatin; assay: Biacore 8k SPR binding affinity, murine pro-myostatin; design: species or system mouse; conditions: not given
From the text: as §1

Ka | Kd (1/s) | Molecule
3.31e+06 M⁻¹ s⁻¹ | 0.0208 s⁻¹ | B4
450000 M⁻¹ s⁻¹ | 0.00137 s⁻¹ | B5
117000 M⁻¹ s⁻¹ | 0.000496 s⁻¹ | B6

tested on: not listed separately; assay: AC-SINS self-interaction (aggregation behavior); type: physicochemical; conditions: cutoff shift >5 nm in plasmon wavelength
Experimental: The antibodies were tested for aggregation behavior by affinity capture self-interaction nanoparticle spectroscopy (AC-SINS). Gold nanoparticles were coated with polyclonal antibodies that are specific for human monoclonal antibodies and the monoclonal antibodies are captured by the conjugates. The polyvalency of the monoclonal antibody conjugates amplifies the attractive self-interactions, i.e., aggregation between the adsorbed antibodies. This leads to reduced inter-particle separation distances and is detected by a change in color of the gold colloid solution, which was quantified by a change in the wavelength of maximum absorbance (plasmon wavelength). Plasmon wavelength of 530 nm was used as the reported value for unaggregated gold nanoparticles. Antibodies with a tendency to self-aggregate shift the plasmon wavelength toward the red end of the spectrum. A shift of greater than 5 nm (i.e., >5 nm) in plasmon wavelength was used as the cutoff indicative of self-interacting antibodies.

Molecule | aggregation behavior by AC-SINS
B7 | did not display aggregation behavior
B8 | displayed aggregation behavior

tested on: total myostatin in serum; assay: Circulating total myostatin in serum (acidification ELISA), dexamethasone model; type: in vivo, mouse; conditions: as compared to apitegromab
From the text: Briefly, serum samples were acidified at low pH (e.g., pH ˜2.5) to dissociate the bound antibody from the immune complex and to convert all myostatin in the sample to the active form of growth factor (i.e., mature myostatin). Samples were then neutralized and assayed for the presence of mature myostatin on ELISA plates coated with anti-mature myostatin antibodies as capture reagents.

Molecule | accumulation of total or latent myostatin in serum samples from dosed subjects
B9 | little or no accumulation of total myostatin

Reference: patent US12338279B2, “Selective and potent inhibitory antibodies of myostatin activation” (SCHOLAR ROCK, INC., priority 2022, dated 2025)
